{
  "source": "the supplement of paper PMC10338343",
  "note": "± gives the standard deviation. This is a selection; strong and weak results do not stand in their true shares.",
  "data": [
    {"system": "MIWI (PIWIL1) piRISC loaded with piRNA #1 (30 nt)", "assay": "pre-steady-state target cleavage rate (min^-1); MIWI and MILI are mouse PIWI proteins and EfPiwi is from a freshwater sponge; tags in brackets are library labels; higher = faster piRNA-guided slicing of the target", "settings": "guide: piRNA #1 5'p-UGAGGUAGUAGGUUGUAUAGUAUCCAGAGG; auxiliary factor: 500 nM mouse GTSF1", "procedure,_shortened": "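Cleave-'n-Seq used a transcribed, DNA-blocked target RNA library at 0.1 nM and active affinity-purified piRISC with one synthetic guide at 1 nM, with or without 500 nM GTSF1 partner protein, in HEPES–potassium acetate buffer at 33 °C for 0–8 or 0–960 min. Uncleaved targets were sequenced and normalised to depth and to weakly complementary targets, and three trials were pooled with k3 capped at 0.0001 min^-1. The pre-steady-state cleavage rate was estimated by a burst-and-steady-state fit.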", "values": [
      {"sequence": "GGAGACCUAUGAAUACAACCUACUACCUCG [g2:g18:cont:t1G]", "pre-steady-state target cleavage rate": "0.00279 ± 0.0027"},
      {"sequence": "GGACUGGAUACUAAACAUCCUACUACCUCA", "pre-steady-state target cleavage rate": "1.4 ± 0.14"},
      {"sequence": "GGAGACCAUACUAUUACAACCUACUACCUCA", "pre-steady-state target cleavage rate": "1.19 ± 0.1"},
      {"sequence": "GGAGACGAUACUAUACAACCAACUACGUCA", "pre-steady-state target cleavage rate": "0.105 ± 0.013"},
      {"sequence": "GGAGACGAUACUAUACAACCAACAACCUCA", "pre-steady-state target cleavage rate": "0.15 ± 0.024"},
      {"sequence": "CCUCUGGAUACUACUACAACCUACUACCUCA", "pre-steady-state target cleavage rate": "1.64 ± 0.098"},
      {"sequence": "GGAGACCUUACUAAACAACGUACUACCUCA", "pre-steady-state target cleavage rate": "0.0805 ± 0.013"},
      {"sequence": "GGAGACCAUUCUAUACAACCUACAACCUCA", "pre-steady-state target cleavage rate": "0.667 ± 0.075"},
      {"sequence": "GGAGACCUAACUAUACAAACUACUACCUCA", "pre-steady-state target cleavage rate": "0.482 ± 0.04"},
      {"sequence": "GGAGAGGAUUCUAUACAACGUACUACCUCA", "pre-steady-state target cleavage rate": "0.559 ± 0.029"},
      {"sequence": "GGAGACCUUACUAUAACAACCUACUACCUCA", "pre-steady-state target cleavage rate": "0.621 ± 0.07"},
      {"sequence": "GCUCUGGAUACUAUGACAACCUACUACCUCA", "pre-steady-state target cleavage rate": "1.6 ± 0.092"},
      {"sequence": "GGAGACCUAUGUAUAGAACCUACUACGUCA", "pre-steady-state target cleavage rate": "0.022 ± 0.0052"},
      {"sequence": "GGAGACGAUAGUAUACAACCUACAACCUCA", "pre-steady-state target cleavage rate": "0.563 ± 0.036"},
      {"sequence": "GGUCUGGUUACUAUACAACCUACUACCUGA", "pre-steady-state target cleavage rate": "0.493 ± 0.076"},
      {"sequence": "CGUCUGGAUACUAUACAAGCUACUACCUCA", "pre-steady-state target cleavage rate": "0.73 ± 0.045"},
      {"sequence": "GGAGACCUAUGAUAUGUUCCUACUUCCUCA", "pre-steady-state target cleavage rate": "< 0.0001"},
      {"sequence": "GCUCUGGAUACUAUUCAACCUACUUCCUCA", "pre-steady-state target cleavage rate": "0.621 ± 0.043"},
      {"sequence": "GGAGAGGAUACUAUACAUCCUAGUACCUCA", "pre-steady-state target cleavage rate": "0.0746 ± 0.019"},
      {"sequence": "GGAGACCAUACUAUACGACCUACUACCUCA", "pre-steady-state target cleavage rate": "1.06 ± 0.072"},
      {"sequence": "GGACUGGAUACUAUACAACCUACUACUCUCA", "pre-steady-state target cleavage rate": "1 ± 0.091"},
      {"sequence": "GGACUGGAUACUUUACAACCUACUACCUCA", "pre-steady-state target cleavage rate": "1.53 ± 0.1"},
      {"sequence": "GGAGUGGUUACUAUACAACCUACUAGCUCA", "pre-steady-state target cleavage rate": "0.0393 ± 0.0076"},
      {"sequence": "GGAGACCUUACUUUACAUCCUACUACCUCA", "pre-steady-state target cleavage rate": "0.518 ± 0.048"},
      {"sequence": "GGAGACCAUACUACUACAACCUACUACCUCA", "pre-steady-state target cleavage rate": "0.705 ± 0.067"},
      {"sequence": "GGAGACCUUACUAUACAACCUACUUCGUCA", "pre-steady-state target cleavage rate": "0.201 ± 0.033"},
      {"sequence": "GGUCUGGAAACUAUACAACGUACUACCUCA", "pre-steady-state target cleavage rate": "1.06 ± 0.071"},
      {"sequence": "GGAGUGGAUACUAUACAACCUUCUACCACA", "pre-steady-state target cleavage rate": "0.138 ± 0.022"},
      {"sequence": "CCUCUGGAUACUAUACAAUCCUACUACCUCA", "pre-steady-state target cleavage rate": "0.013 ± 0.0047"},
      {"sequence": "GGAGACCUAUCUAUACUACCUACUACCACA", "pre-steady-state target cleavage rate": "0.0517 ± 0.013"},
      {"sequence": "GGAGACGAUUCUAUACAACCAACUACCUCA", "pre-steady-state target cleavage rate": "0.126 ± 0.014"},
      {"sequence": "GGAGUGGAUACUAUACAACCAACAACCUCA", "pre-steady-state target cleavage rate": "0.0532 ± 0.0078"},
      {"sequence": "GGAGUGGAUUCUAUACAACCUACUACGUCA", "pre-steady-state target cleavage rate": "0.522 ± 0.048"},
      {"sequence": "GGAGUCGUUACUAUACAACCUACUACCUCA", "pre-steady-state target cleavage rate": "1.18 ± 0.088"},
      {"sequence": "GGAGACCAUACUAUCCAACCUACUACCUCA", "pre-steady-state target cleavage rate": "1.69 ± 0.13"},
      {"sequence": "GGAGAGGAUACUAUACAACGUACUAGCUCA", "pre-steady-state target cleavage rate": "0.055 ± 0.014"},
      {"sequence": "GGACUGGAUACUAUACAACCUACUACUCA", "pre-steady-state target cleavage rate": "0.152 ± 0.025"},
      {"sequence": "GGUCUGGAAACUAUACAACCUACUAGCUCA", "pre-steady-state target cleavage rate": "0.0186 ± 0.0084"},
      {"sequence": "GGAGACCUAUCUAUACAACGUACUACGUCA", "pre-steady-state target cleavage rate": "0.0743 ± 0.014"},
      {"sequence": "GGACUGGAUAGUAUACAUCCUACUACCUCA", "pre-steady-state target cleavage rate": "0.52 ± 0.077"}
    ]}
  ]
}
